# From the supplement of paper PMC8728848
# The other results are listed elsewhere or left out.
# Tests used:
# Assay in all cases: glycan array binding signal (z-score within array); higher = stronger binding
# Conditions in all cases: glycan notation: IUPAC condensed, linker removed
# [1] = molecular target: Gal(b1-3)GalNAc(b1-3)Gal(a1-4)Gal(b1-4)Glc
# Method in brief: (§1)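 From the Consortium for Functional Glycomics database, 3228 arrays were curated, keeping only those whose protein sequence was available. Binding is given as a within-array Z-score averaged across arrays sharing a protein sequence and across linkers. Negative Z-scores can be read as non-binding.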
# [2] = molecular target: Gal(b1-3)GalNAc(b1-4)Gal(b1-4)Glc
# Method in brief: as §1
# [3] = molecular target: Gal(b1-3)GalNAc(b1-4)[Neu5Ac(a2-3)]Gal(b1-4)Glc
# Method in brief: as §1
# [4] = molecular target: Gal(b1-3)GlcNAc
# Method in brief: as §1
# [5] = molecular target: Gal(b1-3)GlcNAc(a1-3)Gal(b1-4)GlcNAc
# Method in brief: as §1
# [6] = molecular target: Gal(b1-3)GlcNAc(a1-6)Gal(b1-4)GlcNAc
# Method in brief: as §1
# [7] = molecular target: Gal(b1-3)GlcNAc(b1-2)Man
# Method in brief: as §1
# [8] = molecular target: Gal(b1-3)GlcNAc(b1-2)Man(a1-3)[Gal(b1-3)GlcNAc(b1-2)Man(a1-6)]Man(b1-4)GlcNAc(b1-4)GlcNAc
# Method in brief: as §1
# [9] = molecular target: Gal(b1-3)GlcNAc(b1-2)Man(a1-3)[Gal(b1-3)GlcNAc(b1-2)Man(a1-6)]Man(b1-4)GlcNAc(b1-4)[Fuc(a1-6)]GlcNAc
# Method in brief: as §1
# [10] = molecular target: Gal(b1-3)GlcNAc(b1-2)Man(a1-3)[GlcNAc(b1-4)][Gal(b1-3)GlcNAc(b1-2)Man(a1-6)]Man(b1-4)GlcNAc(b1-4)GlcNAc
# Method in brief: as §1
# [11] = molecular target: Gal(b1-3)GlcNAc(b1-2)[Gal(b1-3)GlcNAc(b1-6)]Man(a1-6)[Gal(b1-3)GlcNAc(b1-2)Man(a1-3)]Man(b1-4)GlcNAc(b1-4)GlcNAc
# Method in brief: as §1
# [12] = molecular target: Gal(b1-3)GlcNAc(b1-3)Gal(b1-3)GlcNAc
# Method in brief: as §1
# [13] = molecular target: Gal(b1-3)GlcNAc(b1-3)Gal(b1-4)Glc
# Method in brief: as §1
# [14] = molecular target: Gal(b1-3)GlcNAc(b1-3)Gal(b1-4)GlcNAc
# Method in brief: as §1
# [15] = molecular target: Gal(b1-3)GlcNAc(b1-3)Gal(b1-4)GlcNAc(b1-2)Man(a1-3)[Gal(b1-3)GlcNAc(b1-3)Gal(b1-4)GlcNAc(b1-2)Man(a1-6)]Man(b1-4)GlcNAc(b1-4)GlcNAc
# Method in brief: as §1
# [16] = molecular target: Gal(b1-3)GlcNAc(b1-3)Gal(b1-4)GlcNAc(b1-2)[Gal(b1-3)GlcNAc(b1-3)Gal(b1-4)GlcNAc(b1-6)]Man(a1-6)[Gal(b1-3)GlcNAc(b1-3)Gal(b1-4)GlcNAc(b1-2)Man(a1-3)]Man(b1-4)GlcNAc(b1-4)[Fuc(a1-6)]GlcNAc
# Method in brief: as §1
# [17] = molecular target: Gal(b1-3)GlcNAc(b1-3)Gal(b1-4)GlcNAc(b1-3)Gal(b1-4)GlcNAc(b1-2)[Gal(b1-3)GlcNAc(b1-3)Gal(b1-4)GlcNAc(b1-3)Gal(b1-4)GlcNAc(b1-6)]Man(a1-6)[Gal(b1-3)GlcNAc(b1-3)Gal(b1-4)GlcNAc(b1-3)Gal(b1-4)GlcNAc(b1-2)Man(a1-3)]Man(b1-4)GlcNAc(b1-4)[Fuc(a1-6)]GlcNAc
# Method in brief: as §1
# [18] = molecular target: Gal(b1-3)GlcNAc(b1-3)Gal(b1-4)GlcNAc(b1-6)[Gal(b1-3)GlcNAc(b1-3)]Gal(b1-4)Glc
# Method in brief: as §1
# [19] = molecular target: Gal(b1-3)GlcNAc(b1-3)Gal(b1-4)[Fuc(a1-3)]GlcNAc
# Method in brief: as §1
# [20] = molecular target: Gal(b1-3)GlcNAc(b1-3)Gal(b1-4)[Fuc(a1-3)]GlcNAc(b1-6)[Gal(b1-3)GlcNAc(b1-3)]Gal(b1-4)Glc
# Method in brief: as §1
# [21] = molecular target: Gal(b1-3)GlcNAc(b1-3)GalNAc
# Method in brief: as §1
# [22] = molecular target: Gal(b1-3)GlcNAc(b1-6)Gal(b1-4)GlcNAc
# Method in brief: as §1
# [23] = molecular target: Gal(b1-3)GlcNAc(b1-6)GalNAc
# Method in brief: as §1
# [24] = molecular target: Gal(b1-3)GlcNAc(b1-6)[Gal(b1-3)]GalNAc
# Method in brief: as §1
# [25] = molecular target: Gal(b1-3)GlcNAc6S
# Method in brief: as §1
# [26] = molecular target: Gal(b1-3)[Fuc(a1-4)]GlcNAc
# Method in brief: as §1
# [27] = molecular target: Gal(b1-3)[Fuc(a1-4)]GlcNAc(b1-2)Man
# Method in brief: as §1
# [28] = molecular target: Gal(b1-3)[Fuc(a1-4)]GlcNAc(b1-2)Man(a1-3)[Gal(b1-3)[Fuc(a1-4)]GlcNAc(b1-2)Man(a1-6)]Man(b1-4)GlcNAc(b1-4)GlcNAc
# Method in brief: as §1
# [29] = molecular target: Gal(b1-3)[Fuc(a1-4)]GlcNAc(b1-2)Man(a1-3)[Gal(b1-3)[Fuc(a1-4)]GlcNAc(b1-2)Man(a1-6)]Man(b1-4)GlcNAc(b1-4)[Fuc(a1-6)]GlcNAc
# Method in brief: as §1
# [30] = molecular target: Gal(b1-3)[Fuc(a1-4)]GlcNAc(b1-3)Gal(b1-3)[Fuc(a1-4)]GlcNAc
# Method in brief: as §1
# [31] = molecular target: Gal(b1-3)[Fuc(a1-4)]GlcNAc(b1-3)Gal(b1-4)GlcNAc
# Method in brief: as §1
# [32] = molecular target: Gal(b1-3)[Fuc(a1-4)]GlcNAc(b1-3)Gal(b1-4)[Fuc(a1-3)]GlcNAc
# Method in brief: as §1
# [33] = molecular target: Gal(b1-3)[Fuc(a1-4)]GlcNAc(b1-6)GalNAc
# Method in brief: as §1
# [34] = molecular target: Gal(b1-3)[GlcNAc(b1-6)]GalNAc
# Method in brief: as §1
# [35] = molecular target: Gal(b1-3)[Neu5Ac(a2-6)]GalNAc
# Method in brief: as §1
# [36] = molecular target: Gal(b1-3)[Neu5Ac(a2-6)]GlcNAc(b1-4)Gal(b1-4)Glc
# Method in brief: as §1
# [37] = molecular target: Gal(b1-3)[Neu5Ac(a2-6)]GlcNAc(b1-6)Gal(b1-4)Glc
# Method in brief: as §1
# [38] = molecular target: Gal(b1-3)[Neu5Ac(b2-6)]GalNAc
# Method in brief: as §1
# [39] = molecular target: Gal(b1-4)Gal
# Method in brief: as §1
# [40] = molecular target: Gal(b1-4)GalNAc(a1-3)[Fuc(a1-2)]Gal(b1-4)GlcNAc
# Method in brief: as §1
# [41] = molecular target: Gal(b1-4)GalNAc(b1-3)[Fuc(a1-2)]Gal(b1-4)GlcNAc
# Method in brief: as §1
# [42] = molecular target: Gal(b1-4)Glc
# Method in brief: as §1
# [43] = molecular target: Gal(b1-4)Glc6S
# Method in brief: as §1
# [44] = molecular target: Gal(b1-4)GlcNAc
# Method in brief: as §1
# [45] = molecular target: Gal(b1-4)GlcNAc(a1-6)Gal(b1-4)GlcNAc
# Method in brief: as §1
binder,measurement,setting,value
"PA-IL (Pseudomonas aeruginosa), Q05097 (protein) MAWKGEVLANNEAGQVTSIIYNPGDVITIVAAGWASYGPTQKWGPQGDREHPDQGLICHDAFCGALVMKIGNSGTIPVNTGLFRWVAPNNVQGAITLIYNDVPGTYGNNSGSFSVNIGKDQS",glycan array binding signal (z-score),[1],-0.228
same,glycan array binding signal (z-score),[2],-0.225
same,glycan array binding signal (z-score),[3],-0.238
same,glycan array binding signal (z-score),[4],-0.168
same,glycan array binding signal (z-score),[5],-0.241
same,glycan array binding signal (z-score),[6],-0.242
same,glycan array binding signal (z-score),[7],-0.232
same,glycan array binding signal (z-score),[8],-0.193
same,glycan array binding signal (z-score),[9],-0.222
same,glycan array binding signal (z-score),[10],-0.22
same,glycan array binding signal (z-score),[11],-0.229
same,glycan array binding signal (z-score),[12],-0.224
same,glycan array binding signal (z-score),[13],-0.228
same,glycan array binding signal (z-score),[14],-0.232
same,glycan array binding signal (z-score),[15],-0.224
same,glycan array binding signal (z-score),[16],-0.145
same,glycan array binding signal (z-score),[17],-0.143
same,glycan array binding signal (z-score),[18],-0.221
same,glycan array binding signal (z-score),[19],-0.236
same,glycan array binding signal (z-score),[20],-0.229
same,glycan array binding signal (z-score),[21],-0.213
same,glycan array binding signal (z-score),[22],-0.235
same,glycan array binding signal (z-score),[23],-0.228
same,glycan array binding signal (z-score),[24],-0.232
same,glycan array binding signal (z-score),[25],-0.229
same,glycan array binding signal (z-score),[26],-0.228
same,glycan array binding signal (z-score),[27],-0.219
same,glycan array binding signal (z-score),[28],-0.224
same,glycan array binding signal (z-score),[29],-0.195
same,glycan array binding signal (z-score),[30],-0.217
same,glycan array binding signal (z-score),[31],-0.221
same,glycan array binding signal (z-score),[32],-0.228
same,glycan array binding signal (z-score),[33],-0.215
same,glycan array binding signal (z-score),[34],-0.232
same,glycan array binding signal (z-score),[35],-0.232
same,glycan array binding signal (z-score),[36],-0.226
same,glycan array binding signal (z-score),[37],-0.223
same,glycan array binding signal (z-score),[38],-0.229
same,glycan array binding signal (z-score),[39],-0.217
same,glycan array binding signal (z-score),[40],-0.23
same,glycan array binding signal (z-score),[41],-0.235
same,glycan array binding signal (z-score),[42],-0.221
same,glycan array binding signal (z-score),[43],-0.22
same,glycan array binding signal (z-score),[44],-0.204
same,glycan array binding signal (z-score),[45],-0.235
